# Data reported in PubChem BioAssay AID2147 (National Center for Advancing Translational Sciences (NCATS), 2009).
# Values joined by “and” are separate entries in the source; they are usually repeats but may differ in a detail not shown here. Identical values can stand only once. Screen size: about 230,000 compounds; about 3,600 (1.6%) were called active. The inconclusive results got no clear call from the source; some entries with a clear call stand among them for comparison. Calls come from the whole dose curve; as a rule, active = well fitted inhibition curve with a large enough effect (not every such curve was filed as active); inconclusive = small, poorly fitted or top-dose-only effect, or another doubt; inactive = no such curve, though single readings can be large or run the other way. Where the call is inconclusive, the potency comes from a doubtful curve fit.
# Target: Lysine-specific demethylase 4E (Homo sapiens) (UniProt B2RXH2)
# Experiment: qHTS Assay for Inhibitors of Human Jumonji Domain Containing 2E (JMJD2E)
# Details: JMJD2E catalytic domain, FDH-coupled NADH fluorescence (FDH is formaldehyde dehydrogenase); series mostly up to 57.1 µM
# Note: nearly all actives have a fitted effect of over 50% in size.
# Potency is the fitted concentration of half-maximal effect; tags give direction and shape of the fitted curve.
# Chain of UniProt B2RXH2 (B2RXH2 whole entry, looked up, the tested form may be a part): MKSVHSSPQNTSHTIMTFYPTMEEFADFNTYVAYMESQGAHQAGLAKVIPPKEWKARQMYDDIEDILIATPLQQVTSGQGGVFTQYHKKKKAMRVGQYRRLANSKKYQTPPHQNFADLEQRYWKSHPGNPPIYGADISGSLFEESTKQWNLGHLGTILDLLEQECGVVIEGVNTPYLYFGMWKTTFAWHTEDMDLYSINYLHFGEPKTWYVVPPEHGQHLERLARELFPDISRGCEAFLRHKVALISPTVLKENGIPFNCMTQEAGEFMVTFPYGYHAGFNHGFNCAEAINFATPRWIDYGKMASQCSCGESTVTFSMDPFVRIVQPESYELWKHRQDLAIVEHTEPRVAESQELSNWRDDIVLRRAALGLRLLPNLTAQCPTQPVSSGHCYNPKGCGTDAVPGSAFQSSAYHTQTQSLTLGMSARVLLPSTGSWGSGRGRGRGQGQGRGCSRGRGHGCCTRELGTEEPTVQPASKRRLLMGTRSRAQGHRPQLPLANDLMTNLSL
row,Compound,Potency
1,OCc1c(Cl)nc2ccccn12,"inconclusive: 31.6 µM [inhibitor, single point]"
2,CN1CCN(C(c2cc3cc4c(cc3[nH]c2=O)OCCO4)c2nnnn2C2CCCC2)CC1 (stereo not drawn),"inconclusive: 8.91 µM [inhibitor, partial curve]"
3,CCCCCCC(=O)Nc1c(O)c2ccccc2[nH]c1=O,"inconclusive: 4.47 µM [inhibitor, full curve]"
4,O=C(NCc1cccs1)c1cc(-c2ccc(O)cc2)on1,"inconclusive: 39.8 µM [inhibitor, single point]"
5,CCN(CC(=O)Nc1ccc2c(c1)OCCO2)CC(=O)Nc1ccc2c(c1)OCO2,inactive
6,N#CC(C(=O)OC1CCCCC1)c1nc2ccccc2nc1N1CCOCC1 (stereo not drawn),inactive
7,CCC(=O)c1ccc(/C=C/c2nc3ccccc3n2C)o1,"inconclusive: 31.6 µM [inhibitor, partial curve]"
8,N=C1SC(c2ccccc2)C(=O)N1c1ncc(Cc2ccccc2Cl)s1 (stereo not drawn),"inconclusive: 39.8 µM [inhibitor, single point]"
9,Cc1ccc2[nH]c(O)c(N=NC(N)=S)c2c1,inactive
10,O=C(O)CCCC(=O)N1N=C(c2c(-c3ccccc3)c3cc(Cl)ccc3[nH]c2=O)CC1c1cccs1 (stereo not drawn),"inconclusive: 31.6 µM [inhibitor, partial curve]"
11,Cc1ccc(C)c(-c2nnc(OCC(=O)Nc3cc(C)on3)c3ccccc23)c1,"inconclusive: 28.2 µM [inhibitor, single point]"
12,O=C(N/C(=C\c1ccc(Br)cc1)C(=O)N1CCCC1)c1ccccc1F,"inconclusive: 20 µM [inhibitor, partial curve]"
13,COc1ccc2nc(NC(=O)CS(=O)(=O)Cc3ccccc3)sc2c1,"inconclusive: 28.2 µM [inhibitor, single point]"
14,COCCNC(=O)CN(C(=O)CCC(=O)Nc1cc(C)on1)c1cccc(C)c1C,inactive
15,COC(=O)c1ccccc1NC(=O)Nc1cc(C)ccn1,"inconclusive: 31.6 µM [inhibitor, single point]"
16,Cc1nc2ccc(-c3nc4cc(N)ccc4o3)cc2[nH]1,"inconclusive: 31.6 µM [inhibitor, partial curve]"
17,Nc1ncnc2c1nc(Br)n2C1O[C@H]2COP(=O)(O)O[C@@H]2C1O (stereo partly drawn),inactive
18,CC(C)C1N=C2c3ccccc3N=C(SCC(=O)NCCc3ccc(S(N)(=O)=O)cc3)N2C1=O (stereo not drawn),"inconclusive: 28.2 µM [inhibitor, partial curve]"
19,CCn1cc(C(=O)NCc2ccncc2)c(=O)c2cc(F)c(N3CCN(C(=O)c4ccco4)CC3)cc21,"inconclusive: 31.6 µM [inhibitor, partial curve]"
20,COC(=O)c1[nH]c2ccc(C)cc2c1NC(=O)CCN1CCN(Cc2ccc3c(c2)OCO3)CC1,"inconclusive: 28.2 µM [inhibitor, partial curve]"
21,CC1CCC/C(=N\NC(=S)Nc2ccccc2)C1 (stereo not drawn),"inconclusive: 3.98 µM [inhibitor, single point]"
22,Oc1ccccc1-c1cc(-c2ccco2)[nH]n1,"inconclusive: 39.8 µM [inhibitor, single point]"
23,CC(=O)Nc1cccc(-c2nc3ccccc3s2)c1C,"inconclusive: 39.8 µM [inhibitor, single point]"

row,Compound,Potency
1,CCCCc1ccc(NC(=O)C(C)CC)cc1 (stereo not drawn),inactive
2,C(=N\n1cncn1)/c1ccc(N2CCOCC2)cc1,"inconclusive: 28.2 µM [inhibitor, partial curve]"
3,NS(=O)(=O)c1ccc(O)c(NC(=O)c2ccc([N+](=O)[O-])o2)c1,"inconclusive: 25.1 µM [inhibitor, single point]"
4,COc1ccc(Br)cc1/C=N/NC(=O)c1cc(Br)ccc1O,"inconclusive: 39.8 µM [inhibitor, single point]"
5,O=C(N/N=C/c1ccc(Cl)cc1Cl)C1CCN(c2ncc(C(F)(F)F)cc2Cl)CC1,inactive
6,O=C(Cn1cc(/C=N/NC(=O)c2cccc(C(F)(F)F)c2)c2ccccc21)Nc1ccc(F)cc1,"inconclusive: 28.2 µM [inhibitor, single point]"
7,COCCCn1cnc2oc3nc4ccccc4nc3c2c1=O,"inconclusive: 28.2 µM [inhibitor, partial curve]"
8,COC(=O)c1ccc(CSc2nnc(NC(=O)c3cc4c(s3)CCCC4)s2)cc1,"inconclusive: 31.6 µM [inhibitor, single point]"
9,Cc1ccccc1NC(=O)C(C)n1c2ccccc2c2nc(=O)cc(C)n21 (stereo not drawn),"inconclusive: 25.1 µM [inhibitor, single point]"
10,O=[N+]([O-])c1cc(C=Nc2ccc3ccccc3c2)ccc1Br,"inconclusive: 28.2 µM [inhibitor, partial curve]"
11,CCC(Oc1ccccc1)C(=O)NCCOC (stereo not drawn),inactive
12,O=C(CN1CCOCC1)N1CCc2ccccc2C(c2ccccc2)C1 (stereo not drawn),"inconclusive: 39.8 µM [inhibitor, single point]"
13,C=CCNC(=O)c1onc(CSc2cccc(OC)c2)c1C(=O)O,inactive
14,COc1ccc(NC2=C(Cl)C(=O)N(c3ccccc3)C2=O)c(OC)c1,inactive
15,C=CCN1C=C2C(=O)C(C)(OC(=O)CCc3ccccc3)C(=O)C=C2C=C1c1ccc(C#N)cc1 (stereo not drawn),"inconclusive: 39.8 µM [inhibitor, single point] and inconclusive: 2.82 µM [inhibitor, partial curve, poor fit]"
16,Clc1ccc(-n2ncc3c(N4CCCC4)ncnc32)cc1,"inconclusive: 6.31 µM [inhibitor, single point]"
17,CC(C)CCn1c(=O)c2ccccc2n2c(CN3C(=O)NC4(CCC(C)CC4)C3=O)nnc12 (stereo not drawn),"inconclusive: 39.8 µM [inhibitor, single point]"
18,Cc1ccc2cc3cc(C(=O)N4CCCCC4C)oc3nc2c1 (stereo not drawn),"inconclusive: 31.6 µM [inhibitor, single point]"
19,COc1cc(C2C3=C(CC(c4ccco4)CC3=O)Nc3ccccc3N2C(C)=O)cc(OC)c1OC (stereo not drawn),"inconclusive: 39.8 µM [inhibitor, single point]"
20,Cc1ccc2nc(-c3ccc(N4C(=NC(=O)CCC(=O)O)SC5CS(=O)(=O)CC54)cc3)sc2c1 (stereo not drawn),"inconclusive: 28.2 µM [inhibitor, partial curve]"
21,O=C(CCC1CCCN(C(=O)c2ccc3c(c2)OCO3)C1)N1CCN(c2ccccn2)CC1 (stereo not drawn),"inconclusive: 25.1 µM [inhibitor, partial curve]"
22,Cc1ccc(-n2cc[nH]c2=S)c(C)c1,inactive
23,O=C(CSc1nnc(C2CC2)n1Cc1ccccc1)N1CCN(S(=O)(=O)c2ccccc2)CC1,inactive

row,Compound,Potency
1,CC1CCCN(C(=O)CCCn2c(=S)[nH]c3ccccc3c2=O)C1 (stereo not drawn),inactive
2,CCOC(=O)c1sc(=S)n(-c2ccc(Cl)cc2)c1SC,inactive
3,CCCS(=O)(=O)c1c(S(=O)(=O)CCC)c2cnccn2c1C(=O)c1ccc(OC)cc1,inactive
4,COc1ccc(CCNC(=O)CCC(=O)Nc2ccc3nc(N4CCN(C)CC4)cc(C)c3c2)cc1OC,"inconclusive: 28.2 µM [inhibitor, partial curve]"
5,CC(C)n1c(SCC(=O)Nc2ccc3c(c2)OCO3)nc2c1c(=O)n(C)c(=O)n2C,inactive
6,NC(=O)N/N=C/c1ccc2cccc(OCc3ccccc3)c2n1,"inconclusive: 28.2 µM [inhibitor, partial curve]"
7,Cc1cccc2cc(CN(Cc3cccs3)Cc3nnnn3Cc3ccccc3)c(=O)[nH]c12,inactive
8,COc1ccccc1-c1nnc(NC(=O)c2ccc3ncsc3c2)o1,"inconclusive: 39.8 µM [inhibitor, single point]"
9,Nc1cc(Cl)ccc1C(=O)OCC(=O)NC1CCS(=O)(=O)C1 (stereo not drawn),"inconclusive: 31.6 µM [inhibitor, partial curve]"
10,CCCC12CN3CCN(CC(C3)/C1=N\NC(=O)c1ccccc1N)C2,"inconclusive: 31.6 µM [inhibitor, single point]"
11,CN(C)CCOC(=O)c1ccc2c(c1)S(=O)(=O)c1ccccc1C2=O,"inconclusive: 39.8 µM [inhibitor, single point]"
12,O=C1CN(C(=O)COC(=O)c2ccccc2NCc2ccco2)c2ccccc2N1,"inconclusive: 28.2 µM [inhibitor, partial curve]"
13,N#CCc1c(C#N)c(N)nc(N2CCN(C=O)CC2)c1C#N,"inconclusive: 35.5 µM [inhibitor, single point]"
14,COCCNC(=O)CSc1nc2ccccc2c(=O)n1CCC(=O)NCCc1ccc(OC)c(OC)c1,inactive
15,CC1(C)CC(=O)C/C(=N\NC(=O)CCc2ccc(S(=O)(=O)N3CCOCC3)cc2)C1,inactive
16,COCCCNC(=S)N1CCCN(c2nc3cc(C)c(C)cc3cc2C#N)CC1,"inconclusive: 10 µM [inhibitor, partial curve]"
17,Cc1cc(C)n2nc(SCc3nnc(SCc4ccccc4C)s3)nc2n1,inactive
18,COc1cccc(CN=C2Nc3ccccc3CS2)c1,inactive
19,CC(=O)Nc1ccc(NC(=O)c2sc3nc4c(c(-c5ccc(C)cc5)c3c2N)CCC4)cc1,"inconclusive: 28.2 µM [inhibitor, partial curve]"
20,OC1CCN(c2c3c(nc4cc(-c5cccc(F)c5)nn24)CCCC3)CC1,"inconclusive: 35.5 µM [inhibitor, single point]"
21,COc1ccc(N2CCN(C(=O)CSc3nc4[nH]ncc4c(=O)n3-c3cccc4ccccc34)CC2)cc1,inactive
22,O=C(/C=C/C(=O)Oc1ccccc1C(=O)O)Oc1ccccc1C(=O)O,"inconclusive: 10 µM [inhibitor, partial curve]"
